This is one part of the list.
B1: chr21:34823002:34823003:-_ENSG00000142188_ENST00000542230|hu_hu|motif|central (ssRNA)
RNA: GGGAGUUCUACAGUCCGACGAUCGUAUUAUAUACAUAUUAACAGUCUAUGCAAUGAAAAAUAAAGAAAUUUCAUAAAACGGUUUCAAAACUCAGAACAUAAAAAUGUAAAGAAACAAAACAUUUAAUGUACAAUCUACUCCAUCAACAGAGGAUUGAGCAUCA
B2: 61446075_61446195_865_CDS_ENSG00000126814_ENST00000261249|human|control|control (ssRNA)
RNA: GGGAGUUCUACAGUCCGACGAUCAAAGUGUUCAUAUGUUAGUUCCAAAUUGUAUUUAGAGAUCUGUGGACUGACAUUAAGCUGCUCUAAAACACUGAGUUCUGCUUUCUCAAAGGAAUCAUGAGUAAAUAUUUUAUAGGGAUCCAACAGAGGAUUGAGCAUCA
B3: chr8:80577206:80577207:+_ENSG00000104435_ENST00000220876|hu_mus|FALSE|FALSE (ssRNA)
RNA: GGGAGUUCUACAGUCCGACGAUCUUUAUUUUAUUUUUGAUUCUGUUUUUUGUUUUGUUUUUCAUAAUGAGUUCUUUUUAAACCAUGUCAUACACUUCCCAUACUGAUAUCGCAUGAUCCAUUAUAAUAUAGGCAGGGGGAUUUCAACAGAGGAUUGAGCAUCA
B4: chr2:20889081:20889082:-_ENSMUSG00000036591_ENSMUST00000173194|mus_mus|FALSE|FALSE (ssRNA)
RNA: GGGAGUUCUACAGUCCGACGAUCUGUGGCCAUCAUUUCAUUUCAAAUUGUAAAGGGACAAAUCCUUUGGAGUCCACAUUGGAGAAGUGCCACCACACACCAAACGGGAAGCAAUUCCACAGCAGAUUCUGAGGCGAUGAAGGACAACAGAGGAUUGAGCAUCA
B5: chr1:111660612:111660613:-_ENSG00000156171_ENST00000539140|hu_hu|FALSE|FALSE (ssRNA)
RNA: GGGAGUUCUACAGUCCGACGAUCAAAGUAUAGGCAUAGGUGUUUUUAAUAGUCUUCUUGAUGAUAUCCUUUAGAAUAAUCUAUCAAAUGGCUUCUUUCAUGUUUCCUGAUUAUCAGCAUUCAUCAGUGUUACUGUCAGCCUUGCAACAGAGGAUUGAGCAUCA
B6: chr2:216981417:216981418:+_ENSG00000079246_ENST00000392132|hu_hu|hu_hu_hu_mus_True|58_88 (ssRNA)
RNA: GGGAGUUCUACAGUCCGACGAUCCUGAUACUGGUCCUUGCCAGCAAGGGGAUUGUCAGUGCCAUCUGUGCCAUAGAGGACUAAAGCAAUCUCAUCUUUGCUCUCCGAAAAUACCUGUCGUUGGACAAACAUAGUCAUCACUUUCAACAGAGGAUUGAGCAUCA
B7: chr1:163112212:163112213:-_ENSG00000143248_ENST00000313961|hu_hu|hu_hu_hu_mus_False|28_68 (ssRNA)
RNA: GGGAGUUCUACAGUCCGACGAUCUUUUAUUAUCAGUAAGAGUGAGUUACAUACUAGGCAAAGUAUUGAAUACAAAAAUCAGGAAACAAACACUAUUGGUCCAGAAUUUAAAAUAUAAUGAGCGAAGUGCUGGCACAGGACUUACAACAGAGGAUUGAGCAUCA
B8: chr9:119834795:119834796:+_ENSMUSG00000032512_ENSMUST00000036561|mus_mus|FALSE|FALSE (ssRNA)
RNA: GGGAGUUCUACAGUCCGACGAUCCAAACAUGAACCACAAUAUAAAUAUCAAACCAACUCACUGUGAGAUCUUUUUACUCUAGUAACAUAAACUUUAGGUAGCAUCUGAAUGAAACUGCAACUUCAGCAUGGCCGUAAGUUCUGCAACAGAGGAUUGAGCAUCA
B9: chr7:75932113:75932114:+_ENSG00000106211_ENST00000248553|hu_hu|hu_hu_hu_mus_False|38_38 (ssRNA)
RNA: GGGAGUUCUACAGUCCGACGAUCCUGCGACCACUCAUCGGGCAACCGGGGCACCCCGAAAGCUUGAUCGAAGAGGCGGCUGUGUGCAGGGUACCAGCGGAAGGGGUGUUCCCAGCUCGGGCUCCGCAGCAGCGAGAAGGGCACCAACAGAGGAUUGAGCAUCA
B10: 38107971_38108091_3725_3pUTR_ENSMUSG00000026083_ENSMUST00000027252|mouse|control|control (ssRNA)
RNA: GGGAGUUCUACAGUCCGACGAUCCAAACAUUUUGGGAGAUUCCCCAGGGAUAGGUUCUAUUUUGACACAGACCUCUUGUCCUUUUUUUGCAACAUCCACCUGCUUGUGGUUUAUUUCAAUGCUUGUUACUAUCCCAAUGUCAACAACAGAGGAUUGAGCAUCA
B11: 75988097_75988217_191_5pUTR_ENSG00000170027_ENST00000307630|human|control|control (ssRNA)
RNA: GGGAGUUCUACAGUCCGACGAUCUCUGCACCAGUUGCUCGCGGUCCACCAUCUUCGCGGGGCUGGGUCUGGCCGGAGAAGGAGGAGGACACUGGGGCGGCCUGAAGGGCUUGGAGGGCGCGACUGGAGCCCAAGUGCCGGAGACAACAGAGGAUUGAGCAUCA
B12: 130672718_130673873_774_CDS_ENSG00000017260_ENST00000359644|human|control|control (ssRNA)
RNA: GGGAGUUCUACAGUCCGACGAUCUGUUCCAAUGACAACACCCUUUGCUUUGCCACAUCUGACCAGUGUUCCCAUAAAGGCAAUGUUACUUCUCGAUGCAAGAUCUCCAUUAGUUGCAGCUGGCUGAGGAGCUGUCACCUUAGACAACAGAGGAUUGAGCAUCA
B13: chr19:36966019:36966020:+_ENSMUSG00000024811_ENSMUST00000025729|mus_hu|FALSE|FALSE (ssRNA)
RNA: GGGAGUUCUACAGUCCGACGAUCCAUGAAAGCUAGAAAUUGAGGCCAGUAAAGAAGCUUCUUUAGUAAUCAGGACCUAUCAUAGUUAGAGCUCUUUGGAAUGUGUCUCAUACAUACAAAGGUAUCACAAAUUAAAUCUUCAGCCAACAGAGGAUUGAGCAUCA
B14: 159564474_159570165_898_3pUTR_ENSMUSG00000028173_ENSMUST00000068952|mouse|control|control (ssRNA)
RNA: GGGAGUUCUACAGUCCGACGAUCCCACACCAUAAUGAUGAAGAUGCUGGGUGUAAGGAAGGUCUUCAUAGCAAACCAUACCUUAGUGAAACCUCCGUUUUGGUGGAUUCCCACCAACCGAAUGUCCUUUAUCUCCCCAAUUCCCAACAGAGGAUUGAGCAUCA
B15: chr5:156566098:156566099:-_ENSG00000155868_ENST00000420343|hu_mus|motif|central (ssRNA)
RNA: GGGAGUUCUACAGUCCGACGAUCGGGUCGAUAUUCAUUUAUAAGAUGAUGUACAUGUACAAAAAGUAGCUUAAGAUCUUCGGGCUUUUCUUCUCGUUUUAUACUCCCAGGACUUCUUAUUAAGAUGUCUAAAAGGUCUAAGAACAACAGAGGAUUGAGCAUCA
B16: chr2:32526493:32526494:+_ENSG00000119820_ENST00000437765|hu_mus|motif|central (ssRNA)
RNA: GGGAGUUCUACAGUCCGACGAUCAGAUCCAACCACCAAAAGUAUAGGGGCUAUUACAAUGAGAGGAAGUAAUGAAUAUCCGGUAACUCCAAGAACUUGGCCAUAUGCAACUUCUCCACCAAGAACUCUAGCCAGUAAGAAAAUCAACAGAGGAUUGAGCAUCA
B17: chr13:55314840:55314841:+_ENSMUSG00000021488_ENSMUST00000099490|mus_hu|FALSE|FALSE (ssRNA)
RNA: GGGAGUUCUACAGUCCGACGAUCAUCACUUUUUUCAGGGUCUUGAAAGGAUUCUGAUCCAUCAGCAGACCCAUUUAAAUACUCUACAUUGAUCAUGGAGGCCAAAUCCUGUAGUCUCCGCAGUGGAAUGUAACAAGAUGGAGACAACAGAGGAUUGAGCAUCA
B18: chr12:88041583:88041584:-_ENSMUSG00000021257_ENSMUST00000021682|mus_mus|motif|central (ssRNA)
RNA: GGGAGUUCUACAGUCCGACGAUCUUCUGCCGGCUCCAGGGUGCAGUUUAAGUGCCAUUUAAACCCCCACACUUCAUUUCGGAAACAGAAACAAGGAGAAACAAGGAAAAGAUAAACCACCAAGCUCUGACCCUCUGCCUCCUUCAACAGAGGAUUGAGCAUCA
B19: chr1:171751117:171751118:+_ENSG00000010165_ENST00000361735|hu_hu|motif|central (ssRNA)
RNA: GGGAGUUCUACAGUCCGACGAUCCUUUUAGGUAAGAGGUUCAUGUUCCUACUGCCGAAGCUGCGUUUUCAAGACUCCCCGGUUCCCUGUGAGAUACCAUUUGAGGAGCUUGCCCACCACACGCAGGCUCCGGGACACUGCAGUCAACAGAGGAUUGAGCAUCA
B20: chr5:132270174:132270175:-_ENSG00000072364_ENST00000265343|hu_hu|motif|central (ssRNA)
RNA: GGGAGUUCUACAGUCCGACGAUCAGAAUCCCAGUUUGCAUCAGGGUCCCGAGGUGAUUUGGAGCGUUGAUGUUCCUUGCGGUGGUGAUCAUUCCCAUGAGACCUGGAAUGACUAGAGUUUAAUGAAGAAACAGCCUGGGGUUUCAACAGAGGAUUGAGCAUCA
B21: chrX:130830059:130830060:+_ENSMUSG00000033578_ENSMUST00000037687|mus_mus|motif|central (ssRNA)
RNA: GGGAGUUCUACAGUCCGACGAUCGGGCCAUGAUAGUUAUGGUUCGUGGGGAUGCCAUGGGGUCACCAAGGCAGGUCCCAACGGAUCCCUCUGCUUUGCGCAGCCCGGCUGUCAAGGCGCAGGCAGUUAGCACAGGGAGAGCUACAACAGAGGAUUGAGCAUCA
B22: chr20:54972846:54972847:+_ENSG00000101138_ENST00000217109|hu_hu|FALSE|FALSE (ssRNA)
RNA: GGGAGUUCUACAGUCCGACGAUCAGCUUCCUGAAUGUAUUUGAAGGCUCUUUUUGCUGAUGGUUUGGAAUAAUCAAAUAAUUUAAGAGUAUAAUCCCUUGAACCAGAAGCCAGGAUCUGUUCUGUUGGGUGGAAAGCAAGGCACAACAGAGGAUUGAGCAUCA

What follows are binders tested against T1, UNK ZnF1-3 (human, UniProt Q9C0B0 31-174) (assay: nsRBNS (natural sequence RNA bind-n-seq); RBNS binding buffer (assumed for nsRBNS): 25 mM Tris pH 7.5, 150 mM KCl, 3 mM MgCl2, 0.01% Triton X-100, 500 ug/ml BSA, 20 U/ml SUPERase-In, 4 C; UNK is unkempt and MSI1 is Musashi-1; names of the RNAs are library labels; protein concentration not given here; high values mean tight binding).
T1 sequence: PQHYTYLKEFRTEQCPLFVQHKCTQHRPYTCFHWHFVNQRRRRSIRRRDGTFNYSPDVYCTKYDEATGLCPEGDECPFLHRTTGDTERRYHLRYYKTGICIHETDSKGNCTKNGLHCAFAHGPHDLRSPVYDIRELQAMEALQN

Point of comparison: B18, binding signal 1.74 enrichment R. Against it:
- B1 — lower, 0.529 enrichment R
- B2 — lower, 1.14 enrichment R
- B3 — lower, 0.946 enrichment R
- B4 — lower, 1.7 enrichment R
- B5 — lower, 0.777 enrichment R
- B6 — lower, 1.35 enrichment R
- B7 — lower, 1.73 enrichment R
- B8 — lower, 1.1 enrichment R
- B9 — higher, 1.8 enrichment R
- B10 — lower, 0.544 enrichment R
- B11 — lower, 1.24 enrichment R
- B12 — lower, 0.581 enrichment R
- B13 — lower, 1.41 enrichment R
- B14 — lower, 0.993 enrichment R
- B15 — lower, 0.623 enrichment R
- B16 — higher, 1.9 enrichment R
- B17 — lower, 0.653 enrichment R
- B19 — lower, 0.55 enrichment R
- B20 — lower, 1.05 enrichment R
- B21 — lower, 0.818 enrichment R
- B22 — higher, 1.91 enrichment R

From publication PMC12136788
